The values that follow come from paper PMC8602290.

The chains behind the UniProt entries cited, without tags or fusion partners. Where a name states a change or a piece, a line headed by the entry shows the natural chain unless it says otherwise.
UniProt O43791: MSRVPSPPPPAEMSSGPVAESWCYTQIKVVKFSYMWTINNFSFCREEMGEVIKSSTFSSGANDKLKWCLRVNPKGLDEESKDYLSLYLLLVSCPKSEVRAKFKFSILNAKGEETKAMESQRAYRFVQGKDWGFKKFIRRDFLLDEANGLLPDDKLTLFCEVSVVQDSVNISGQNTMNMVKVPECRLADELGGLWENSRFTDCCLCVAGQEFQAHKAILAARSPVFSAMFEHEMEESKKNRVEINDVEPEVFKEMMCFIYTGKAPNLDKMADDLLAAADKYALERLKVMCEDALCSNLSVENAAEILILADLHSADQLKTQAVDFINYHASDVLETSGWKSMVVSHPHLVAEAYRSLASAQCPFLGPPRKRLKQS
UniProt Q13283: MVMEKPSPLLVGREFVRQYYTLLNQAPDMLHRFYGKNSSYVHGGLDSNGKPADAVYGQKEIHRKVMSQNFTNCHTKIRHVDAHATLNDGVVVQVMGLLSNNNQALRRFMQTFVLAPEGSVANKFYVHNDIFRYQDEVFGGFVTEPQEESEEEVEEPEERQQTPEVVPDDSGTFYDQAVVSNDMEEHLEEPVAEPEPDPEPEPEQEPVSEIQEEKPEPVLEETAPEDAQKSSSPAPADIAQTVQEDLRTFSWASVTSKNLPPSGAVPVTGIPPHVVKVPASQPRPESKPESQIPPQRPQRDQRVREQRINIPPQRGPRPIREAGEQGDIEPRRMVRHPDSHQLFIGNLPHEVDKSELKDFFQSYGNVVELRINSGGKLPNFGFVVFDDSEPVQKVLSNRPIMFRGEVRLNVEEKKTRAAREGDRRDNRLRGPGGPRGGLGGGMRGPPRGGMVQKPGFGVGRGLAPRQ

No constants are given. Whether binding was seen depends on the method and setting. Binding seen in cells or lysates may run through a third protein. Some results given as binding are weak or reduced against the parent protein; the word gives no strength.

For assay [1], the target named is Speckle-type POZ protein (SPOP), endogenous in 22Rv1 cells (human (endogenous in 22Rv1)) (UniProt O43791). Description: co-IP; 22Rv1 cells transfected with G3BP1 or G3BP1^RRM; NP40 lysates treated without or with 100 U RNase ONE, 1 h, 37 C, then immunoprecipitated.
Assay [2] addresses MATH domain of SPOP (22Rv1, transfected) (UniProt O43791). Description: co-IP; whole cell lysates of 22Rv1 cells transfected with G3BP1 domains and the SPOP MATH domain (Fig. 2e).
Assay [3] has as its target HA-SPOP full length (HEK 293T) (UniProt O43791). Put plainly: co-IP; HEK 293T cells transfected with tagged SPOP and G3BP1 constructs; lysis in 50 mM Tris pH 7.5, 120 mM NaCl, 1% NP-40, 5 mM EDTA; IP with HA, MYC or FLAG antibodies overnight at 4 C, Protein G sepharose (Fig. 2c, d).
The target in assay [4] is GTPase Activating Protein (SH3 Domain) Binding Protein 1 (G3BP1), endogenous in 22Rv1 cells (human (endogenous in 22Rv1)) (UniProt Q13283). Description: proximity ligation; endogenous G3BP1 and SPOP (Supplementary Fig. 1C).
Assay [5] shares this target. Put plainly: co-IP; 22Rv1 cell lysates, IP with IgG or anti-G3BP1 antibody, immunoblot with anti-SPOP and anti-G3BP1; endogenous proteins. (Immunoblotting shows a protein as a band on a membrane.)
Assay [6] has the same target. Description: co-IP; 22Rv1 cells transfected with HA-SPOP^WT, HA-SPOP^F133V or HA-SPOP^F102C, 48 h; IP with anti-G3BP1 antibody, immunoblot anti-HA-SPOP or anti-G3BP1.
Assay [7] deals with FLAG-G3BP1^(338-466), RRM-RGG domain of G3BP1 (HEK 293T) (UniProt Q13283). Description: co-IP; reverse IP with anti-FLAG antibody of the FLAG-G3BP1 constructs co-expressed with HA-SPOP (Supplementary Fig. 2A).
Assay [8] deals with FLAG-G3BP1^(1-138), NTF2 domain of G3BP1 (HEK 293T) (UniProt Q13283). Described as above.
A further assay has as its target Myc-G3BP1 (HEK 293T) (UniProt Q13283). Put plainly: co-IP; HEK 293T cells transfected with tagged SPOP and G3BP1 constructs; lysis in 50 mM Tris pH 7.5, 120 mM NaCl, 1% NP-40, 5 mM EDTA; IP with HA, MYC or FLAG antibodies overnight at 4 C, Protein G sepharose (Fig. 2c, d).
A further assay concerns the target HA-SPOP (LNCaP-sgG3BP1) (UniProt O43791). Put plainly: co-IP; LNCaP-sgG3BP1 cell line (endogenous G3BP1 deleted), FLAG-G3BP1^NTF2 and HA-SPOP (Supplementary Fig. 2B).

For “FLAG-G3BP1^RRM (22Rv1) (from UniProt Q13283 338-466) (domain or fragment)”, the binding entry in assay [1] and in assay [2] was “binds” throughout.
Take “FLAG-G3BP1^(222-338), PxxP region of G3BP1 (HEK 293T) (from UniProt Q13283 222-338) (domain or fragment)”: in [3], the binding entry is “no binding”.
The same measure, in the same setting: as for “FLAG-G3BP1^(1-138), NTF2 domain of G3BP1 (HEK 293T) (from UniProt Q13283 1-138) (domain or fragment)”, the entry is “binds”.
Regarding “FLAG-G3BP1^NTF2 (22Rv1) (from UniProt Q13283 1-138) (domain or fragment)”, the binding entry in assay [2] is given as “binds”.
Regarding “Speckle-type POZ protein (SPOP), endogenous in 22Rv1 cells (from UniProt O43791 1-374)”, the binding entry in assay [4] and in [5] was “binds” in each case.
Turning to “HA-SPOP^F133V (22Rv1) (from UniProt O43791 1-374)”, the binding entry in assay [6] is given as “no binding”.
With “FLAG-G3BP1^(338-466), RRM-RGG domain of G3BP1 (HEK 293T) (from UniProt Q13283 338-466) (domain or fragment)”, the binding entry in [3] is reported as “binds”.
As for “HA-SPOP full length (HEK 293T) (from UniProt O43791 1-374)”, the binding entry in [7] and in assay [8] was “binds” throughout.
In the case of “HA-SPOP^WT (22Rv1) (from UniProt O43791 1-374)”, the binding entry in assay [6] is recorded as “binds”.
For the substance “FLAG-G3BP1^(139-338), acidic and PxxP region of G3BP1 (HEK 293T) (from UniProt Q13283 139-338) (domain or fragment)”, in assay [3], the binding entry was “no binding”.
In the case of “HA-SPOP^MATH, HA-tagged MATH domain of SPOP (HEK 293T) (from UniProt O43791 31-161) (domain or fragment)”, in the assay with Myc-G3BP1 (HEK 293T), the binding entry is reported as “binds”.
For the substance “HA-SPOP^F102C (22Rv1) (from UniProt O43791 1-374)”, the binding result in assay [6] was “no binding”.
Take “FLAG-G3BP1^NTF2 (LNCaP-sgG3BP1) (from UniProt Q13283 1-138) (domain or fragment)”: the binding entry in the assay with HA-SPOP (LNCaP-sgG3BP1) is on record as “binds”.
